Source: paper PMC7242078
These are yes or no findings as the source states them, for the method shown. For part of these data: Binding seen in cells or lysates may run through a third protein. Some results given as binding are weak or reduced against the parent protein; the word gives no strength. For part of these data: Tags and fused reporters may be left off the sequences shown.

T1: CBL-interacting protein kinase 8 (pGBKT7-CIPK8) (Arabidopsis) (UniProt Q9STV4)
T1 sequence: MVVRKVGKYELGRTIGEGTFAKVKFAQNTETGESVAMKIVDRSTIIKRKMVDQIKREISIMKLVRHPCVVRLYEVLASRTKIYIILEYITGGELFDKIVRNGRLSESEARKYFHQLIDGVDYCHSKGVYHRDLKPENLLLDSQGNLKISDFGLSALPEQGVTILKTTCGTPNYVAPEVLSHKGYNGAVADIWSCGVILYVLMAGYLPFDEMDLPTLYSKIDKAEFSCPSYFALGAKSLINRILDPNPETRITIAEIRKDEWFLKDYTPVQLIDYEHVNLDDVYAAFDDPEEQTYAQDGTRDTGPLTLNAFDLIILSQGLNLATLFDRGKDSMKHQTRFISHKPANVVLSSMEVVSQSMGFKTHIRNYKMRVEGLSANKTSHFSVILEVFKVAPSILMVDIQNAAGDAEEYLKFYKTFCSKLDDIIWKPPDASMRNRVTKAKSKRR

T2: CIPK8 luciferase-fragment fusion (pCAMBIA1300-cLUC, primers CIPK8-cLUC-F/R) (Arabidopsis) (UniProt Q9STV4)
T2 sequence: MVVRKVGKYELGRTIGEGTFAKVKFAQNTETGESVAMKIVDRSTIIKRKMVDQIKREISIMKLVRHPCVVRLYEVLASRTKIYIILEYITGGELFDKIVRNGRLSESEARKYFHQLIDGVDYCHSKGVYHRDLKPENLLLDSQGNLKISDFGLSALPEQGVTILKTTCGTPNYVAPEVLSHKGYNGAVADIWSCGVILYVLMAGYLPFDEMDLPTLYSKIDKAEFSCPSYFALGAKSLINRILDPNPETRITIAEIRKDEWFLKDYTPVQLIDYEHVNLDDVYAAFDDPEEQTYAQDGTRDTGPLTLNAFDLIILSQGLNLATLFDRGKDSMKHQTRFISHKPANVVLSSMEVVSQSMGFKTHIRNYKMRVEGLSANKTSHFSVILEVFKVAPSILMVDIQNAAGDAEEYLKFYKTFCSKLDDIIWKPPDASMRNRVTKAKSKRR


Assays:
[1] = target: T1, CBL-interacting protein kinase 8 (pGBKT7-CIPK8) (Arabidopsis); test: two-hybrid; MatchMaker yeast two-hybrid system (Clontech), Y2HGold yeast co-transformed with pGBKT7-CIPK8 and pGADT7-CBLs; growth on QDO/X/A (lacking Leu, Ade, His and Trp, with 40 ug/ml X-alpha-Gal and 125 ng/ml aureobasidin A)
[2] = target: T2, CIPK8 luciferase-fragment fusion (pCAMBIA1300-cLUC, primers CIPK8-cLUC-F/R) (Arabidopsis); test: split reporter; Split-LUC in tobacco leaf cells; data not shown

binding [1]	binding [2]	Binder
no binding	–	Calcineurin B-like protein 8 (pGADT7-CBL8) (protein, UniProt Q9FUQ7 1-214) MLAFVKCFSLKRAKHPRGYEDPHVLASETPFTVNEIEALHDLFKKLSTSIINDGLIHKEEFLLALFRNGSMQNLFADRVFYMFDRKRNGVIEFGEFVRSLSIFHPYTPEHEKSAFMFKLFDLHGTGFIEPHELKKMVGALLGETDLELSEESIEAIVEQTMLEVDTNKDGKIDEEEWKELVAKNPSILKNMTLPYLKEVTLAFPSFVLDSEVED
binds	–	Calcineurin B-like protein 5 (pGADT7-CBL5) (protein, UniProt Q7FZF1 1-203) MGCVCSKQLEGRRQEDISLLASQTFFSEAEVEVLHGLFIKLTSCLSNDNLLTKEKFQFILIKNTKKRSLSAERIFGLFDMRNDGAIDFGEFVHTLNIFHPNSSPRDKAIFAFRLYDTRETGFIEPEEVKEMIIDVLEESELMLSESIIDSIVSKTFEEADWKKDGIIDLEEWENFVATYPLTLKNMTIPFLKDIPRIFPTFLR
–	binds	CBL5 in the Split-LUC assay (protein, UniProt Q7FZF1 1-203) MGCVCSKQLEGRRQEDISLLASQTFFSEAEVEVLHGLFIKLTSCLSNDNLLTKEKFQFILIKNTKKRSLSAERIFGLFDMRNDGAIDFGEFVHTLNIFHPNSSPRDKAIFAFRLYDTRETGFIEPEEVKEMIIDVLEESELMLSESIIDSIVSKTFEEADWKKDGIIDLEEWENFVATYPLTLKNMTIPFLKDIPRIFPTFLR
